Consider 2 compounds from patent US20110257148A1, “NOVEL 1-ALKYL-3-HYDROXY-3-PHENYLAZETIDINE DERIVATIVES USEFUL AS MODULATORS OF CORTICAL CATECHOLAMINERGIC NEUROTRANSMISSION” (NSAB, FILIAL AF N[…] AB, SVERIGE, priority 2008, published 2011).

This test deals with MK-801 pre-treated rats. The experiment in a line: Locomotor activity in MK-801 pre-treated rats (antipsychotic activity model). Conditions: rats pre-treated with MK-801 0.7 mg/kg i.p. 90 minutes before test compound; test compound 100 μmol/kg; recorded between 30 and 60 minutes after administration.

On to `CCCN1CC(O)(c2cccc(F)c2F)C1` [Example 1, 3-(2,3-DIFLUOROPHENYL)-1-PROPYLAZETIDIN-3-OL], for which the “Locomotor activity, MK + example 100 μmol/kg” value came out at 5493 counts/30 min.
`CCCN1CC(O)(c2cccc(Cl)c2F)C1` [Example 6, 3-(3-Chloro-2-Fluorophenyl)-1-Propylazetidin-3-Ol]: the “Locomotor activity, MK + example 100 μmol/kg” value amounted to 8968 counts/30 min.
